# Hit rate of the full screen: of about 220,000 compounds, about 16,000 (7.3%) were called active. Inconclusive means that the source gave no clear call. Such entries were picked first, then a sample of the others. Calls follow the shape of the dose curve; as a rule, active = well fitted inhibition curve with a large enough effect (not every such curve was filed as active); inconclusive = small, poorly fitted or top-dose-only effect, or another doubt; inactive = no such curve, though single readings can be large or run the other way. No potency is given beside an inconclusive call; the fits are too rough.
# Target: Aldehyde dehydrogenase 1A1 (Homo sapiens) (UniProt P00352)
# Assay: qHTS Assay for Inhibitors of Aldehyde Dehydrogenase 1 (ALDH1A1)
# Conditions: Purified ALDH1A1, NADH fluorescence, propionaldehyde substrate; series mostly up to 75.3 µM
# Potency is read from the fitted curve at half-maximal effect; tags tell the direction and shape of the fitted curve.
# Chain of UniProt P00352 (P00352 whole entry, looked up): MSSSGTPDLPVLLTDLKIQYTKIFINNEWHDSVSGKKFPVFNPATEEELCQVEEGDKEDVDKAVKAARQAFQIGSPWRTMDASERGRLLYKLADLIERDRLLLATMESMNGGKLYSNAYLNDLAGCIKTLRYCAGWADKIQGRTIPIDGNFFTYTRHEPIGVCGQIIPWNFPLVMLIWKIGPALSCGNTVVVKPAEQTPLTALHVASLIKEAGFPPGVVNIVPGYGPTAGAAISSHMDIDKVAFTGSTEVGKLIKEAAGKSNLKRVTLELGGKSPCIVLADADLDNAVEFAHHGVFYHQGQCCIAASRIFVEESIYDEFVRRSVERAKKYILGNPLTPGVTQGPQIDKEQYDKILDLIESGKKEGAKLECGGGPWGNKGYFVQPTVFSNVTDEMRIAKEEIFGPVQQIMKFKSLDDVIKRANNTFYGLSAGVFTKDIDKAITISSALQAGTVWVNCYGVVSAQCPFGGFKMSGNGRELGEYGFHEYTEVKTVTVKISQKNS
row,SMILES,Potency
1,O=C(CCc1ccc(S(=O)(=O)N2CCOCC2)cc1)Nc1ccc2ccccc2c1,"inconclusive [inhibitor, partial curve]"
2,CN(C(=O)CSc1nnc(-c2ccco2)n1N)C1CCCCC1,"inconclusive [inhibitor, single point]"
3,OC[C@@H]1[C@@H](c2ccc(F)cc2)C(c2cccc(Cl)c2)=NN1c1ccccc1,"inconclusive [inhibitor, partial curve]"
4,N#C/C(=C\c1c(N2CCCCC2)nc2ccccn2c1=O)C(=O)NC1CCS(=O)(=O)C1 (configuration not stated),"inconclusive [inhibitor, full curve]"
5,COc1ccccc1NS(=O)(=O)c1ccc(OC)c(OC)c1,inactive
6,O=C(N/C(=C/c1cccs1)C(=O)N1CCOCC1)c1ccccc1,inactive
7,O=C(c1ccccc1)N1CCN(Cc2ccccc2Br)CC1,"inconclusive [inhibitor, single point]"
8,O=C(c1ccccc1)N1CCN(C(=O)N2CCCCC2)CC1,"inconclusive [inhibitor, single point]"
9,CCOc1cccc(OCCCCN2CCOCC2)c1,"inconclusive [inhibitor, partial curve, poor fit]"
10,Cc1cccc(-c2n[nH]c(=S)n2/N=C/c2ccc(C)o2)c1,"inconclusive [inhibitor, single point]"
11,Cc1cccc(N=N/C(=C\O)C(=O)c2ccc(Br)cc2)c1,"inconclusive [inhibitor, partial curve]"
12,CCCCNC(=O)Nc1ccccc1C(=O)NCCC,inactive
13,COc1ccc(C(CNc2ccc(S(=O)(=O)N3CCCC3)cc2[N+](=O)[O-])N2CCCC2)cc1 (configuration not stated),"inconclusive [inhibitor, single point]"
14,CN(Cc1ccco1)c1ncnc2ccc(-c3cccc(C#N)c3)cc12,"inconclusive [inhibitor, partial curve]"
15,CCNC(=S)NNC(=O)c1ccc2ncccc2c1,inactive
16,N#CC1=C(SCc2ccccc2)NC2=C(C(=O)CCC2)C1c1ccc2c(c1)OCO2 (configuration not stated),"inconclusive [inhibitor, single point]"
17,O=C(CCc1ccc(S(=O)(=O)NC2CCCCC2)cc1)NCc1cccnc1,active: 12.6 µM
18,CCOC(=O)c1[nH]c(C)c(C(=O)N2CCN(c3cccc(Cl)c3)CC2)c1C,"inconclusive [inhibitor, single point]"
19,CN(C)S(=O)(=O)N1CCN(c2ccc([N+](=O)[O-])c(NC3CC3)c2)CC1,"inconclusive [inhibitor, single point]"
20,CN(C)CCOc1cccc(Br)c1,"inconclusive [inhibitor, single point]"
21,CN(C)Cc1ccccc1-c1nccc(N(C)C)n1,"inconclusive [inhibitor, partial curve]"
22,CCCc1cc(=O)n2[nH]c(NCc3cccs3)nc2n1,"inconclusive [inhibitor, partial curve]"
23,Cc1[nH][nH]c(=O)c1C(c1ccc(O)c([N+](=O)[O-])c1)c1c(C)[nH][nH]c1=O,"inconclusive [inhibitor, single point]"
24,CCc1ccc(-c2cc(C(=O)N/N=C/c3c[nH]c4ccccc34)[nH]n2)cc1,inactive

row,SMILES,Potency
1,COc1ccc(C2C(C#N)=C(C)NC3=C2C(=O)CC(C)(C)C3)c(OC)c1 (configuration not stated),"inconclusive [inhibitor, partial curve]"
2,Cc1ccc(S(=O)(=O)NCC(=O)N(CC(=O)NCC2CCCO2)C2CCCC2)cc1 (configuration not stated),"inconclusive [inhibitor, single point]"
3,COCCn1cnnc1SCC(=O)Nc1cccc(S(=O)(=O)N2CCCCCC2)c1,"inconclusive [inhibitor, single point]"
4,CC1(C)OC(=O)C(=Cc2ccc(-c3ccc(Cl)c(C(=O)O)c3)o2)C(=O)O1,"inconclusive [inhibitor, full curve]"
5,CNC(=S)N1CCN(c2nc3ccccc3s2)CC1,inactive
6,S=C(NCc1ccco1)NC1CCCc2ccccc21 (configuration not stated),inactive
7,CC(=O)Nc1ccc(C2Nc3ccccc3C(=O)N2C2CCCCC2)cc1 (configuration not stated),"inconclusive [inhibitor, partial curve]"
8,CCC1(C(=O)OC)NC(c2ccco2)C2C(=O)N(c3ccccc3)C(=O)C21 (configuration not stated),"inconclusive [inhibitor, single point]"
9,O=C(NN=C1CCCCCCCCCCC1)c1ccccc1F,"inconclusive [inhibitor, single point]"
10,COCCCNC(=S)N1CCN(Cc2ccc3c(c2)OCO3)CC1,"inconclusive [inhibitor, single point]"
11,COCCn1c(=O)c(-c2cccs2)nc2cnc(OC)nc21,"inconclusive [inhibitor, partial curve]"
12,COc1ccccc1CC(=O)NNS(=O)(=O)c1ccc([N+](=O)[O-])cc1,inactive
13,O=C(Nc1cccc(S(=O)(=O)C(F)F)c1)c1ccc(Cl)c(S(=O)(=O)N2CCOCC2)c1,"inconclusive [inhibitor, partial curve]"
14,C=C(C)CNC(=S)N/N=C/c1ccc(N2CCOCC2)cc1,"inconclusive [inhibitor, partial curve]"
15,O=C(CCCn1c(=S)[nH]c2ccsc2c1=O)Nc1ccc2c(c1)OCCO2,inactive
16,Cc1ccc(-c2cnc(-c3ccncc3)o2)cc1,"inconclusive [inhibitor, partial curve]"
17,CC1(C)CC(=O)C2=C(C1)OC(c1ccc(O)cc1)C(C#N)=C2N (configuration not stated),active: 1.12 µM
18,CCC(CC)NCC(O)COc1ccc(Br)cc1 (configuration not stated),"inconclusive [inhibitor, single point]"
19,CC(=O)Oc1ccc2oc(=O)c3c(c2c1)CCCN3C(=O)CN1CCN(c2ncccn2)CC1,"inconclusive [inhibitor, single point]"
20,CCOC(=O)c1c(CC(C)C)csc1NC(=O)CCl,active: 8.91 µM
21,C(=N\n1cnnc1)/c1ccc2c(c1)OCO2,"inconclusive [inhibitor, single point]"
22,Cc1nn(CCc2nn[nH]n2)c2nc(-c3ccccc3)cc(C(F)(F)F)c12,"inconclusive [inhibitor, single point]"
23,O=C(O)C1C2C=CC(O2)C1C(=O)NCc1ccccc1Br (configuration not stated),active: 14.1 µM
24,Cc1cccc(N2CCN(C(=O)c3ccccn3)CC2C)c1 (configuration not stated),inactive

row,SMILES,Potency
1,Cc1cnc(CNc2cc(-c3ccc(N(C)C)cc3)ncn2)cn1,"inconclusive [inhibitor, partial curve]"
2,CC(=O)c1cccc(NC(=O)NCc2ccco2)c1,"inconclusive [inhibitor, partial curve]"
3,CC(C)=NNc1nc(-c2ccc([N+](=O)[O-])cc2)cs1,inactive
4,Cn1c(-c2cnn(-c3ccccc3)c2-n2cccc2)n[nH]c1=S,active: 22.4 µM
5,Cc1ccccc1C(=O)c1c[nH]c(C(=O)NCc2ccco2)c1,active: 20 µM
6,COC(=O)C1(Cc2ccccc2)C=C2C(=C(C(C)C)C(=O)C2C)CN1 (configuration not stated),"inconclusive [inhibitor, partial curve]"
7,COc1ccc(OC)c(/C=C/C(=O)NC2=NCCS2)c1,"inconclusive [inhibitor, single point]"
8,CCC1CCc2c(sc(NC(=O)c3ccco3)c2C(N)=O)C1 (configuration not stated),inactive
9,O=C(CCCCl)NC(=S)Nc1ccc(CN2CCOCC2)cc1,active: 20 µM
10,Cc1nc2cc(C(=O)OCC(=O)Nc3cccc(Cl)c3)ccc2n1-c1ccccc1,"inconclusive [inhibitor, single point]"
11,Cc1cc(S(=O)(=O)NC2CCCCC2)ccc1OCC(=O)NCc1ccccn1,"inconclusive [inhibitor, partial curve]"
12,O=C(COc1c(Br)cc(Br)c2cccnc12)N1CCCCC1,"inconclusive [inhibitor, single point]"
13,O=C(CN(C(=O)c1ccccc1Cl)N1C(=O)CCCC1=O)c1ccc(Cl)cc1,inactive
14,CCc1cc2ccccc2nc1SCC(=O)Nc1cc(C)on1,"inconclusive [inhibitor, single point]"
15,CCOC(=O)Cn1nc(-c2ccccc2)c2cnc3ccc(C)cc3c21,"inconclusive [inhibitor, single point]"
16,CN(C)CCCN(C(=O)c1ccc2c(c1)CCCC2)c1nc2ccc(Cl)cc2s1,active: 14.1 µM
17,FC(F)(F)c1ccc(Cl)c(N/N=C/c2ccc(N3CCOCC3)s2)c1,active: 4.47 µM
18,CCSc1nc(N2CCCCC2)c2c(c1C#N)CCCC2,"inconclusive [inhibitor, single point]"
19,COc1cc(C(=O)NCCCNc2nc3cc(C)c(C)cc3cc2C#N)cc(OC)c1OC,"inconclusive [inhibitor, single point]"
20,CCc1ccc(CN(C)Cc2nc(Cc3ccc(OC)c(OC)c3)no2)nc1,"inconclusive [inhibitor, single point]"
21,Cc1ccccc1CS(=O)(=O)Cc1ccc(C(=O)NCC2CCCO2)o1 (configuration not stated),"inconclusive [inhibitor, single point]"
22,N#Cc1c2n(c3c(=S)nc[nH]c13)CCCCC2,active: 18.9 µM
23,COc1ccc(N2C(=O)CC(N3CCCCC3)C2=O)cc1 (configuration not stated),active: 17.8 µM
24,CCc1c(C(=O)Nc2ccc(S(=O)(=O)N3CCOCC3)cc2)csc1C,"inconclusive [inhibitor, single point]"
